The assay concerns MIWI (PIWIL1) piRISC loaded with L1MC piRNA (30 nt). Briefly: pre-steady-state target cleavage rate (min^-1); MIWI and MILI are mouse PIWI proteins and EfPiwi is from a freshwater sponge; tags in brackets are library labels; higher = faster piRNA-guided slicing of the target. The conditions noted are these: guide: L1MC piRNA 5'p-UAACUAAAUACUAUGCAAGCUGUAGGUCCU
An outline of the steps: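 The pre-steady-state cleavage rate was derived from a burst-and-steady-state fit of Cleave-'n-Seq data. For these assays, 1 nM active affinity-purified piRISC loaded with a single synthetic guide was mixed with […] a transcribed, DNA-blocked target RNA library in HEPES–potassium acetate buffer at 33 °C, with or without 500 nM GTSF1 partner protein, for 0–8 or 0–960 min. Sequencing counts of uncleaved targets were normalised to depth and to weakly complementary targets, and k3 was capped at 0.0001 min^-1 after three trials were pooled.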

Where [1] appears, read: auxiliary factor: 500 nM mouse GTSF1.
[2] abbreviates: auxiliary factor: none (no GTSF1).

± gives the standard deviation. The list shows a part of the results, in another mix than the full data.
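Note: 1 nM active piRISC with 0.1 nM target library at 33 °C single turnover.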

Turning to UCCUGGAUGUCCUUGCAUAGUCUUUAGUUA, the “pre-steady-state target cleavage rate” value is, setting by setting: under setting [1], 0.02 ± 0.0049; under setting [2], 0.0105 ± 0.0023.

UCCUGGUACAGCUUGCAAAGUAUUUAGAAA: the “pre-steady-state target cleavage rate” value came out at 0.17 ± 0.054 under setting [1] and 0.004 ± 0.0037 under setting [2].

Consider UCCUGGAACAGCUUGCAUAGUUUUAAGUUA, for which the “pre-steady-state target cleavage rate” value under setting [1] is 0.13 ± 0.018 and the “pre-steady-state target cleavage rate” value under setting [2] amounted to 0.0139 ± 0.0037.

For AGGACCUACACCUUGCAUAGUAUUUAGAAA, the “pre-steady-state target cleavage rate” value under setting [1] is 0.714 ± 0.098 and the “pre-steady-state target cleavage rate” value under setting [2] was determined as 0.0173 ± 0.0056.

On to UCCUGGAUCAGCUUGCAUAGUUUUUACUUA, for which the “pre-steady-state target cleavage rate” value came to 0.0546 ± 0.0099 under setting [1] and 0.00917 ± 0.0026 under setting [2].

Regarding UCCUGGAUGUCGAUUGCAUAGUAUUUAGUUA, the “pre-steady-state target cleavage rate” value runs as follows: under setting [1], 0.0517 ± 0.008; under setting [2], 0.00436 ± 0.002.

Take UCGACCUACAGCUUGCAUAGUUUUAAGUUA: the “pre-steady-state target cleavage rate” value is, setting by setting: under setting [1], 0.276 ± 0.022; under setting [2], 0.0137 ± 0.0034.

For the sequence UCCUGGAUGUCGUUGCAUUGUAUUUUGUUA, the “pre-steady-state target cleavage rate” value is, setting by setting: under setting [1], below 0.0001; under setting [2], below 0.0001.

UCGACCUUCAGCUUGCAUUGUAUUUAGUUA: the “pre-steady-state target cleavage rate” value under setting [1] turned out to be 0.972 ± 0.03 and the “pre-steady-state target cleavage rate” value under setting [2] was 0.0327 ± 0.0075.

For the sequence AGGACCUACAGGAUGCAUAGUAUUUAGUUA, the “pre-steady-state target cleavage rate” value reads like this: under setting [1], 1.06 ± 0.092; under setting [2], 0.023 ± 0.0047.

Turning to AGGACCUACAGCUUGCAAAGAAUUUAGUUA, the “pre-steady-state target cleavage rate” value stood at 0.37 ± 0.03 under setting [1] and 0.0117 ± 0.0035 under setting [2].

As to UCCUGCUACAGCUUGCUUAGUUUUUAGUUA, the “pre-steady-state target cleavage rate” value runs as follows: under setting [1], 0.187 ± 0.015; under setting [2], 0.0115 ± 0.0034.

For the sequence UCCUGGAACAGCUUGCAUUGUAUUUAGUUA, the “pre-steady-state target cleavage rate” value is 0.829 ± 0.041 under setting [1] and 0.0279 ± 0.0071 under setting [2].

With UCGUGGUACAGCUUGCAUAGUAUUUAGUAA, the “pre-steady-state target cleavage rate” value is, setting by setting: under setting [1], 0.704 ± 0.05; under setting [2], 0.0283 ± 0.0051.

UCCUGGAUCAGCUUGCAUAGUUAUUAGUAA: the “pre-steady-state target cleavage rate” value was 0.0234 ± 0.01 under setting [1] and 0.0035 ± 0.0024 under setting [2].

UCCUCCUACACCUUGCUUAGUAUUUAGUUA: the “pre-steady-state target cleavage rate” value stood at 0.807 ± 0.056 under setting [1] and 0.0231 ± 0.0042 under setting [2].

With UCGACCUUCAGCUUGCAUAGUAUUAAGUUA, the “pre-steady-state target cleavage rate” value reads like this: under setting [1], 0.8 ± 0.044; under setting [2], 0.0251 ± 0.0052.

As to UCCUGGUACAGCUUGGAUACUAUUUAGUUA, the “pre-steady-state target cleavage rate” value is, setting by setting: under setting [1], 0.282 ± 0.064; under setting [2], 0.00733 ± 0.0031.

For AGGACCUAGAGCAUGCAUAGUAUUUAGUUA, the “pre-steady-state target cleavage rate” value runs as follows: under setting [1], 1.04 ± 0.07; under setting [2], 0.0381 ± 0.0072.

UCCUGGUACAGCUUGCUUAGUUUUUAGUUA: the “pre-steady-state target cleavage rate” value reads like this: under setting [1], 0.111 ± 0.019; under setting [2], 0.0344 ± 0.0094.

Consider UCCUGGAUGUGCUUGGAUAGUAUUUUGUUA, for which the “pre-steady-state target cleavage rate” value is, setting by setting: under setting [1], 0.274 ± 0.047; under setting [2], 0.0168 ± 0.0048.

Turning to UCCACCAACAGGUUGCAUAGUAUUUAGUUA, the “pre-steady-state target cleavage rate” value reads like this: under setting [1], 0.838 ± 0.052; under setting [2], 0.0297 ± 0.0047.

As to UCCUGCUAGUGCUUGCAUAGUAUUUAGUUA, the “pre-steady-state target cleavage rate” value runs as follows: under setting [1], 0.177 ± 0.025; under setting [2], 0.021 ± 0.0046.

Take UCCUGGUUCAGCUUGCAUAGUAUAUAGUUA: the “pre-steady-state target cleavage rate” value worked out at 0.46 ± 0.048 under setting [1] and 0.033 ± 0.0093 under setting [2].

As for UCCUGGAUGAGCUUGCAUUGUAUUAAGUUA, the “pre-steady-state target cleavage rate” value under setting [1] came to 0.107 ± 0.015 and the “pre-steady-state target cleavage rate” value under setting [2] was 0.00884 ± 0.0036.

In the case of UCCUGGUACACCUUGCAUAGUAUUAAGUUA, the “pre-steady-state target cleavage rate” value is, setting by setting: under setting [1], 0.29 ± 0.087; under setting [2], 0.00503 ± 0.0036.

With UGGACCUACAGGUUGCAUACUAUUUAGUUA, the “pre-steady-state target cleavage rate” value is, setting by setting: under setting [1], 0.196 ± 0.018; under setting [2], 0.0212 ± 0.004.

As for UCCUGCUACAGCUUGCAUUGUAUUUACUUA, the “pre-steady-state target cleavage rate” value stood at 0.329 ± 0.047 under setting [1] and 0.0149 ± 0.0046 under setting [2].

For the sequence UCCUGCUUGUGCUUGCAUAGUAUUUAGUUA, the “pre-steady-state target cleavage rate” value was determined as 0.417 ± 0.034 under setting [1] and 0.0382 ± 0.0071 under setting [2].

On to UGGACCUACAGCUUGCAUACAAUUUAGUUA, for which the “pre-steady-state target cleavage rate” value was found to be 0.00897 ± 0.0029 under setting [1] and 0.0035 ± 0.0017 under setting [2].

UCGACGUACAGCUAGCAUAGUAUUUAGUUA: the “pre-steady-state target cleavage rate” value came to 1.23 ± 0.056 under setting [1] and 0.0266 ± 0.0062 under setting [2].

As for AGGACCUACAGCUUGCAAAGUUUUUAGUUA, the “pre-steady-state target cleavage rate” value runs as follows: under setting [1], 0.393 ± 0.021; under setting [2], 0.0192 ± 0.0049.

As for UCCUGCUUGUGCUUGCAUAGUAUUUAGAAA, the “pre-steady-state target cleavage rate” value under setting [1] turned out to be 0.0867 ± 0.017 and the “pre-steady-state target cleavage rate” value under setting [2] came out at 0.00326 ± 0.0021.

Turning to AGGACCUACAGCUUGCAUAGUAUAUUGUUA, the “pre-steady-state target cleavage rate” value stood at 0.498 ± 0.05 under setting [1] and 0.0335 ± 0.0055 under setting [2].

UCCUGGUACAGGUUGGAUAGUAUUUAGUUA: the “pre-steady-state target cleavage rate” value under setting [1] is 0.717 ± 0.096 and the “pre-steady-state target cleavage rate” value under setting [2] was determined as 0.0166 ± 0.0038.

With UCCUGGAUCAGCUUGCAAAGUAAUUAGUUA, the “pre-steady-state target cleavage rate” value under setting [1] came out at 0.27 ± 0.028 and the “pre-steady-state target cleavage rate” value under setting [2] came to 0.0111 ± 0.0048.

Consider UCGACCAUCAGCUUGCAUAGUAUUUAGAAA, for which the “pre-steady-state target cleavage rate” value reads like this: under setting [1], 0.464 ± 0.041; under setting [2], 0.00942 ± 0.0035.

Regarding UCCUGGAUGAGCUUGGAUAGUUUUUAGUUA, the “pre-steady-state target cleavage rate” value by setting is: under setting [1], 0.106 ± 0.015; under setting [2], 0.0227 ± 0.0062.

In the case of UCCUCCUACAGCUUGCAUAGUUUUUUGUUA, the “pre-steady-state target cleavage rate” value stood at 0.253 ± 0.024 under setting [1] and 0.0262 ± 0.0061 under setting [2].

On to UGGACCUACUCCUUGCAUAGUAUUUAGUUA, for which the “pre-steady-state target cleavage rate” value by setting is: under setting [1], 1.11 ± 0.054; under setting [2], 0.0434 ± 0.008.

As to UCCUGGAUCAGCUUGGAUAGUAUUUACUUA, the “pre-steady-state target cleavage rate” value reads like this: under setting [1], 0.244 ± 0.048; under setting [2], 0.00918 ± 0.0037.

With UCCUCCUACAGCUUGCAUAGUAUUAUGUUA, the “pre-steady-state target cleavage rate” value is, setting by setting: under setting [1], 0.347 ± 0.03; under setting [2], 0.0125 ± 0.0043.

Consider UCCUGGAACAGCUUGCAUAGUAUUAACUUA, for which the “pre-steady-state target cleavage rate” value was determined as 0.135 ± 0.027 under setting [1] and 0.00545 ± 0.0032 under setting [2].

As for UGGACCUUGAGCUUGCAUAGUAUUUAGUUA, the “pre-steady-state target cleavage rate” value under setting [1] is 0.98 ± 0.079 and the “pre-steady-state target cleavage rate” value under setting [2] came out at 0.0437 ± 0.0096.

Take UGGACCUAGAGCUUGGAUAGUAUUUAGUUA: the “pre-steady-state target cleavage rate” value was found to be 1.25 ± 0.076 under setting [1] and 0.0446 ± 0.0094 under setting [2].

As to UCGACGAUCAGCUUGCAUAGUAUUUAGUUA, the “pre-steady-state target cleavage rate” value reads like this: under setting [1], 1.6 ± 0.047; under setting [2], 0.0826 ± 0.017.

As for UCCUCCUACUGCUUGCAUAGUAUUUAGUAA, the “pre-steady-state target cleavage rate” value under setting [1] is 0.328 ± 0.029 and the “pre-steady-state target cleavage rate” value under setting [2] is 0.0179 ± 0.0034.

Regarding UCCUGGAACAGGUUGCAUAGUAUUUUGUUA, the “pre-steady-state target cleavage rate” value was determined as 0.538 ± 0.048 under setting [1] and 0.012 ± 0.0027 under setting [2].

Regarding UCGACCUAGUGCUUGCAUAGUAUUUAGUUA, the “pre-steady-state target cleavage rate” value by setting is: under setting [1], 0.85 ± 0.028; under setting [2], 0.0599 ± 0.012.

For the sequence UCCUGGAUGACCUUGCAUAGUAUUUACUUA, the “pre-steady-state target cleavage rate” value under setting [1] was 0.0931 ± 0.017 and the “pre-steady-state target cleavage rate” value under setting [2] came to 0.00707 ± 0.0025.

For UCCUGGUACUCCUUGCAUAGUAUUUAGUUA, the “pre-steady-state target cleavage rate” value reads like this: under setting [1], 0.216 ± 0.044; under setting [2], 0.00686 ± 0.0022.

For UCCACCUACAGCUUGCAUAGUAUUUAGUAA, the “pre-steady-state target cleavage rate” value by setting is: under setting [1], 0.669 ± 0.069; under setting [2], 0.0343 ± 0.0088.

With UGGUCCUACAGCUUGCAUAGUAUUUAGAUA, the “pre-steady-state target cleavage rate” value came to 0.414 ± 0.033 under setting [1] and 0.0331 ± 0.0058 under setting [2].

As for AGGACGUACAGCUUGCAUACUAUUUAGUUA, the “pre-steady-state target cleavage rate” value is, setting by setting: under setting [1], 0.246 ± 0.023; under setting [2], 0.0258 ± 0.0064.

Regarding UCCACCUACAGCUUGCAUAGUAUUAUGUUA, the “pre-steady-state target cleavage rate” value is 0.302 ± 0.034 under setting [1] and 0.0133 ± 0.0026 under setting [2].

As to UCCUGGUACAGCUAGCAUAGUAUUUAGUUA, the “pre-steady-state target cleavage rate” value is, setting by setting: under setting [1], 0.733 ± 0.042; under setting [2], 0.019 ± 0.0043.

With UCCUCCUACAGCUUGCAUAGUUUUUAGUAA, the “pre-steady-state target cleavage rate” value runs as follows: under setting [1], 0.246 ± 0.027; under setting [2], 0.0137 ± 0.0029.

In the case of UCCUCCUACUGCUUGCUUAGUAUUUAGUUA, the “pre-steady-state target cleavage rate” value by setting is: under setting [1], 1.06 ± 0.04; under setting [2], 0.03 ± 0.0053.

As for UCCUCCUAGUCCUUGCAUAGUAUUUAGUAA, the “pre-steady-state target cleavage rate” value under setting [1] turned out to be 0.235 ± 0.03 and the “pre-steady-state target cleavage rate” value under setting [2] stood at 0.00608 ± 0.0013.

For AGGACCUUGUGCUUGCAUAGUAUUUACAAA, the “pre-steady-state target cleavage rate” value reads like this: under setting [1], 0.0799 ± 0.015; under setting [2], 0.00564 ± 0.0019.

Values taken from the supplement of paper PMC10338343.
